Experimental data reported in the supplement of paper PMC3334620.
Whole data set: some 33,000 sequences, median “E-score (-0.5 to 0.5)” near -0.04, cut for the highest 2% near 0.36. The list shows a part of the results.

Each sequence was assayed against T1, Hmlalpha2 (UniProt P0CY09) (assay: PBM E-score (8-mer binding enrichment) (E-score (-0.5 to 0.5)); higher = stronger / more preferred TF binding; most listed sequences are background and not binding sites). Conditions: protein concentration: 200 nM; construct: GST-full length.
T1 sequence: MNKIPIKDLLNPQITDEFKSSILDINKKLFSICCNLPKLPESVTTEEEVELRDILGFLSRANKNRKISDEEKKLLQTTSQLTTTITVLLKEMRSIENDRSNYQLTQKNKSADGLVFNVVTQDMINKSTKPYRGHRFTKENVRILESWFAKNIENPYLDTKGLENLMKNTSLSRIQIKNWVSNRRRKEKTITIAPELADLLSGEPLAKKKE
Method in brief: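 Masliner-normalised scans of fluorescent anti-GST signal were the basis for scoring. That signal came from GST-tagged yeast transcription factors applied at about 100-200 nM to double-stranded universal all-10-mer Agilent arrays on fresh or once-stripped slides. Each ungapped eight-base word, pooled with its reverse complement, received an E-score from the Universal PBM Analysis Suite.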

Sequence	PBM E-score
AATCCCAT	-0.0199
ATAAATGA	0.0479
CGCGTCCA	0.086
GGATACCC	-0.25
CGCCTTTC	-0.214
ATGCACCA	-0.0332
AACTTTAC	0.237
AAGCGAAT	0.145
CCGGTAGG	-0.219
GCTTCTCA	-0.334
CACTCGGC	-0.0818
CCTCGGGA	-0.302
AACTACTC	0.0649
AGTCTTTC	-0.265
AGCTTCAT	-0.169
CCATATCA	-0.146
CGACCCGC	-0.135
GTTTTTTA	0.218
ACGCCTGG	-0.0352
CATAATAG	0.136
GTACCACA	0.145
CGGGCAAC	-0.261
CTCCTGTA	0.102
CAAATAGC	-0.0233
CCCCTTGC	-0.0936

Sequence	PBM E-score
CAGTGGCC	-0.152
ACGACCGC	-0.273
CTTATAAA	0.0996
CGCAAACA	0.207
TCAGAAGA	-0.267
CCTAATAC	0.171
ACTAGTTA	0.167
ACGGAACG	0.0167
ATGGCTGC	-0.187
GTCTAGTA	0.0962
CCACAACG	-0.0345
TATCCGGA	-0.0417
GCCGTAAA	0.0868
ATTCTTTA	0.169
GCCATGCA	0.0965
CATCCACG	0.155
CCGGGGCG	-0.306
CAATCGTG	0.174
AATCAGAC	-0.018
CAGAGCTG	-0.163
AGTCATAA	-0.0877
CTGGGAAA	-0.249
GGAGAAAA	-0.135
TCATCTAA	0.0514
AGATGACA	0.144

Sequence	PBM E-score
GTATCTCA	0.196
GCGCGCTA	0.112
AGATTGCG	-0.103
CACCGTCA	-0.131
GGTCGAAC	0.0286
AAGGTCGA	-0.0822
GGTAGTAA	0.103
CATCAGTC	-0.235
ACCTAGGC	-0.253
ACGCAGTG	0.0248
ACCCCAAC	0.0203
ACGTGGAT	0.0823
CCGAATAG	-0.0923
ACAAAGAC	0.216
CTCTAAGC	-0.106
GCTGTGTA	0.437
CCCCCTCA	-0.371
CATAGGGA	-0.0755
ATGCGAGC	-0.139
CCACACTC	-0.139
ACTCTGCT	-0.142
ACACTTTC	-0.0806
GCACGTAC	-0.0476
ATACAAAA	0.234
ATATATAA	0.199

Sequence	PBM E-score
CCTTTTAG	-0.0972
AAATTGAC	0.238
CCCGTATA	-0.0109
ATGTCTCA	0.0532
ACTGTGTA	0.443
ATATTTTG	-0.025
AGTTACTC	0.0812
ACGCTATA	0.0242
TTCCCGAA	-0.0789
TCCTACGA	-0.133
AAGCTCTC	-0.153
AGTGGGGA	-0.191
CCACAACA	0.0233
GAGTCACA	0.00056
ACATGGAA	0.317
ACACCGGT	-0.0298
CGACCAGC	-0.0858
ACATTATC	0.239
CTAGGCAG	-0.207
AATTCCTA	0.128
GTCGCAAA	0.0886
GGGAGGCA	-0.231
ATCCTCTC	-0.166
AGGCTGTA	0.19
ACAAAGAT	0.187

Sequence	PBM E-score
CGTACCCC	-0.139
CGTTCCGA	-0.162
ACCGGGAT	-0.24
AGTCATAC	-0.00735
ACCCTACG	0.0634
GCACATCC	-0.171
CGCTCCTC	-0.265
ACTGCCAT	0.0798
TAACCAGA	0.149
ACAATATA	0.241
CTCCAGTA	-0.128
CTATGCAA	0.0816
ACGGTACC	-0.0955
ATGTACAA	0.433
CAGCACGA	0.0651
GAACGGCA	-0.156
AGTATGTG	0.115
GCCGCTAC	-0.261
CACGTAAC	0.196
GGGATTTA	-0.0755
ATGAGCTA	-0.0339
AAGCTGTG	0.0414
GTTAAATA	0.277
ACCATCAT	-0.0447
TAAGTCTA	-0.0997

Sequence	PBM E-score
ATGTAGTA	0.391
ATCAGCTC	-0.17
GCACTGAA	-0.173
CTTTAGGA	-0.143
TGTTGAAA	0.37
CGGCCCCC	-0.33
CTAACCCA	0.0445
TGTGAGAA	-0.0347
GAGAGTCA	-0.263
TCCACCCA	-0.218
ACGGGATC	0.0332
AATTGTGA	0.194
CGGAGTTC	0.0336
AGTCCCAA	-0.297
AACATTCC	0.0723
CGATTCCA	-0.168
AAGCGTCA	0.132
GGTTAACC	-0.142
GGCCGCCC	-0.138
AACCTTTG	-0.0671
ATGAAACC	0.0645
AGGTTACC	0.0838
CGAGGTTC	-0.0786
AATCCTAC	-0.0218
AGTCCAGC	-0.161

Sequence	PBM E-score
CATCAAGC	-0.116
ATTCGGCA	0.0193
CCATAACA	0.333
AGTCTTAA	-0.0272
AGCGCGAC	-0.147
CCCAGAAC	-0.101
ATTTCTAA	0.0315
GTTGAGTA	0.289
CTAGCTAA	-0.104
ACCGCTCG	-0.17
ATTGGGTC	-0.154
CGAGTCAC	-0.162
CCGCGAGA	-0.185
GAGCGCAA	-0.216
TCGTATCA	0.0109
GCGGGTTA	0.151
AGCAGAAG	-0.123
ACAGGCGC	-0.0936
GAAGGATA	0.0374
AAATTATC	0.221
CGTTTGAC	0.0383
AGATTGAC	0.0388
